This note sets out measurements from the RNAGym collection of RNA variant scans (doi:10.1073/pnas.2313332121).

Variants at the floor of the assay are shown more often than the library holds them. A value given as a limit tells only on which side of the number the result lay.

The labels stand for the following.
B1: TPR 5TU (parent)
chain: GGAUCUUCUCGAUCUAACAAAAAAGACAAAUCUGCCACAAAGCUUGAGAGCAUCUUCGGAUGCAGAGGCGGCAGCCUUCGGUGGCGCGAUAGCGCCAACGUUCUCAACUAUGACACGCAAAACGCGUGCUCCGUUGAAUGGAGUUUAUCAUG

The variants in this data set derive from B1. As to the kind of experiment: polymerase ribozyme fitness, log enrichment relative to wild type (log ratio); higher = more active; in vitro selection for triplet polymerase activity. The method in brief: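 Fitness measures genotype enrichment against wild-type enrichment on a logarithmic scale, with inverse-variance-weighted averaging of replicates. The logarithm is base 2, and genotypes were kept only with ≥10 input reads and ≥1 read per output in Illumina sequencing. The sequenced libraries came from one triplicate in vitro selection round, including frozen incubation at −7 °C, of PCR-built, transcribed mutant libraries of each subunit of a heterodimeric triplet polymerase ribozyme.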
GGAUCUUCUCGAUCUAACAAAAAAGACAAAUCUGCCACAAAGCUUGAGAGCAUCUUCGGAUGCAGAGGCGGCAUCCUUCGGUCGCGCGAUAGCGCCAAUGUUCUCAACUAUGACACGCAAAACGCGUGCUCCGUUGAAUGGAGUUUAUCAUG [G74U G83C C99U]: the “polymerase ribozyme fitness (log ratio)” value was ≤ -4.2.

GGAUCUUCUCGAUCUAACAAAAAAGACAAAUCUGCCACAAAGCUUGAGAGCAUCUUCGGAUGCAGAGGCGGCAUCCUUCGGAGGCGCGAUAGCGCCAACGUUCUCAACUAUGACACGCAAAACGCGUGCUCCGUUGAAUGGAGUUUAUCAUG [G74U U82A]: the “polymerase ribozyme fitness (log ratio)” value is ≤ -4.2.

As for GGAUCUUCUCGAUCUAACAAAAAAGACAAAUCUGCCACAAAGCUUGAGAGCAUCUUCGGAUGCAGAGGCGGCAUCCUUCGGUGGAGCGAUAGCGCCAACGUUCUCAACUAUGGCACGCAAAACGCGUGCUCCAUUGAAUGAAGUUUAUCAUG [G74U C85A A113G G133A G141A], the “polymerase ribozyme fitness (log ratio)” value was ≤ -4.2. In the case of GGAUCUUCUCGAUCUAACAAAAAAGACAAAUCUGCCACAAAGCUUGAGAGCAUCUUCGGAUGCAGAGGCGGCAGACUUCGGUGGCGCGAUAGCGCCCACGUUUUCAACUAUGACACGCAAAACGCGUGCUCCGUUGAAUGGAGUUUAUCAGG [C75A A97C C103U U151G], the “polymerase ribozyme fitness (log ratio)” value was ≤ -4.2. As to GGAUCUUCUCGAUCUAACAAAAAAGACAAAUCUGCCACAAAGCUUGAGAGCAUCUUCGGAUGCAGAGGCGGCAGACUUCCGUGGCGCGAUAGCGCCAACGUUCUGAACUAUGACACGCAAAACGCGUGCUCCGUUGAAUGGAGUUUAUCAUG [C75A G80C C105G], the “polymerase ribozyme fitness (log ratio)” value is ≤ -4.2.

GGAUCUUCUCGAUCUAACAAAAAAGACAAAUCUGCCACAAAGCUUGAGAGCAUCUUCGGAUGCAGAGGCGGCAGACUUCGGUGGCGCGAUAGCGCCAACGUUCUCAACUAUGACACGCAAAACGCGUGCUCCGUUGGAAGCAGUUUAUCAUG [C75A A137G U139A G141C]: the “polymerase ribozyme fitness (log ratio)” value was ≤ -4.2. For GGAUCUUCUCGAUCUAACAAAAAAGACAAAUCUGCCACAAAGCUUGAGAGCAUCUUCGGAUGCAGAGGCGGCAGACUUCGGUGGUGCUAUAGCACCAACGUUCUCAACUAUGACACGCAAAACGCGUGCUCCGUUGAAUGGAGUUUAUCAUG [C75A C85U G88U G94A], the “polymerase ribozyme fitness (log ratio)” value is ≤ -4.2. On to GGAUCUUCUCGAUCUAACAAAAAAGACAAAUCUGCCACAAAGCUUGAGAGCAUCUUCGGAUGCAGAGGCGGCAUCCUUCGGGGGCGCGAUAGCGCCAACGUACUCAACUAUGACACGCAAAACGCGUUCUCCGAUGAAUGGAGUUUAUCAUC [G74U U82G U102A G128U U134A G152C], for which the “polymerase ribozyme fitness (log ratio)” value is ≤ -4.2. On to GGAUCUUCUCGAUCUAACAAAAAAGACAAAUCUGCCACAAAGCUUGAGAGCAUCUUCGGAUGCAGAGGCGGCAUCCUUCGGUGGCGCGAUAGCGCCAACGUUCUCAACUAUGACACGCAAGAUGCGUGCUUCGUUGAAUGGAGUUUAUCAUG [G74U A121G C123U C131U], for which the “polymerase ribozyme fitness (log ratio)” value is ≤ -4.2. The value for GGAUCUUCUCGAUCUAACAAAAAAGACAAAUCUGCCACAAAGCUUGAGAGCAUCUUCGGAUGCAGAGGCGGCAGAGUUCGGUGGCCCGAUAGCGCCAACGUUCUCAACUAUGACACGCAAAACGCGUGCUCCGUUGAAUGGAGUUUAUCAUG [C75A C76G G86C] was ≤ -4.2; that for GGAUCUUCUCGAUCUAACAAAAAAGACAAAUCUGCCACAAAGCUUGAGAGCAUCUUCGGAUGCAGAGGCGGCAGACUUCGGUGGCGCGAUAGCGCUCACGUUCUCAACUAUGACACGCAAAACGCGUGCUCCGUUGAAUGGAGUUUAUCAUG [C75A C96U A97C] was ≤ -4.2.

As to GGAUCUUCUCGAUCUAACAAAAAAGACAAAUCUGCCACAAAGCUUGAGAGCAUCUUCGGAUGCAGAGGCGGCAGACUUCGGUGGCGCGAUAGCGCCAACGUUCUCAAUUAUGACACGCAAAACGCGUGCUCCGUUGAAUGGAGUUUAACAUG [C75A C108U U148A], the “polymerase ribozyme fitness (log ratio)” value was ≤ -4.2.

For the variant GGAUCUUCUCGAUCUAACAAAAAAGACAAAUCUGCCACAAAGCUUGAGAGCAUCUUCGGAUGCAGAGGCGGCAGACUUCGGUGGCGCGAUAUCGCCAGCGAUCUCAACUAUGACACGCAAAACGCGUGCUCCGUUAACUGAAGUUUAUCAUG [C75A G92U A98G U101A G136A A138C G141A], the “polymerase ribozyme fitness (log ratio)” value is ≤ -4.2. As to GGAUCUUCUCGAUCUAACAAAAAAGACAAAUCUGCCACAAAGCUUGAGAGCAUCUUCGGAUGCAGAGGCGGCAGAAUUCGGUGGCGCGAUAGCGCUAACGUUCUCAACUAUGACACGCAAAACGCGUGCUCCGUUGAAUGGAGUUUAUCAUG [C75A C76A C96U], the “polymerase ribozyme fitness (log ratio)” value was ≤ -4.2. On to GGAUCUUCUCGAUCUAACAAAAAAGACAAAUCUGCCACAAAGCUUGAGAGCAUCUUCGGAUGCAGAGGCGGCAUCCUUCGGUGGCGCAAUAGCGCCAACGUUCUCAACUAUGACACGCUAAACGUGUGCUCCGUUGAAUGGAGUUUAUCAUG [G74U G88A A119U C125U], for which the “polymerase ribozyme fitness (log ratio)” value was -3.95. For GGAUCUUCUCGAUCUAACAAAAAAGACAAAUCUGCCACAAAGCUUGAGAGCAUCUUCGGAUGCAGAGGCGGCAUCCUUCGGUGGCGCGUUAGCGCCAACGUUCUCAACUAUGACACGCAAAACGCGUCCUUCGUUGAAUGGAGUUUAUCAUG [G74U A89U G128C C131U], the “polymerase ribozyme fitness (log ratio)” value is ≤ -4.2.

As to GGAUCUUCUCGAUCUAACAAAAAAGACAAAUCUGCCACAAAGCUUGAGAGCAUCUUCGGAUGCAGAGGCGGCACCCUUCGGUGGCGCGACAGCGACAACGUUCUCAACUAUGACACGCAAAACGCGUGCUCCGUCGAAUGGAGUUUAUGAUG [G74C U90C C95A U135C C149G], the “polymerase ribozyme fitness (log ratio)” value was ≤ -4.2. In the case of GGAUCUUCUCGAUCUAACAAAAAAGACAAAUCUGCCACAAAGCUUGAGAGCAUCUUCGGAUGCAGAGGCGGCAGACUUCGCUGGCGCGAUAGCGCAACCGUUCUCAACUAUGACACGCAAAACGCGUGCUCCGUUGAAUGGAGUUUAUCAUG [C75A G81C C96A A98C], the “polymerase ribozyme fitness (log ratio)” value was ≤ -4.2. Next, GGAUCUUCUCGAUCUAACAAAAAAGACAAAUCUGCCACAAAGCUUGAGAGCAUCUUCGGAUGCAGAGGCGGCAUCCUUCGGUUGCGCGAUAGCGCCAACGUUCUAAACUAUGACACGCUAAACGCGUGCUCCGGUGAAUGGAGUUUAUCAUG [G74U G83U C105A A119U U134G]: ≤ -4.2.
